From the supplement of paper PMC4967469
Lines with a small IC50 respond at low doses; a fit beyond the top or the lowest dose is shown as a bound at that dose. AUC, from the same fit, is the share of area under the viability curve across the 256-fold dose range: 1 means no effect, lower means more sensitive.

Compound: COc1ccc(C2=N[C@@H](c3ccc(Cl)cc3)[C@@H](c3ccc(Cl)cc3)N2C(=O)N2CCNC(=O)C2)c(OC(C)C)c1 [Nutlin-3a]
Assay: Viability of human cancer cell lines after 72 h of drug (GDSC screen)
Method: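 Human cancer cell lines in 384-well plates, medium with 10% serum, drug for 72 h over a 256-fold dose range (nine 2-fold or five 4-fold steps up to the top dose). Adherent lines were fixed and stained with the nucleic acid dye Syto60, suspension lines read with resazurin; signal relative to control wells, capped at 0 and 100%. One two-parameter sigmoid per drug and line, fitted in a mixed model over all curves with the slope shared within a line.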

Cell Line | AUC | IC50
K5 (thyroid, adherent, top dose 4 µM) | 0.777 | 1.54 µM
KARPAS-45 (lymphoblastic leukaemia, suspension, top dose 8 µM) | 0.967 | > 8 µM
KARPAS-231 (B-cell leukaemia, suspension, top dose 8 µM) | 0.989 | > 8 µM
KARPAS-299 (anaplastic large cell lymphoma, suspension, top dose 8 µM) | 0.973 | > 8 µM
KARPAS-422 (B-cell lymphoma, suspension, top dose 8 µM) | 0.983 | > 8 µM
KARPAS-620 (haematopoietic neoplasm, suspension, top dose 8 µM) | 0.991 | > 8 µM
KARPAS-1106P (B-cell lymphoma, suspension, top dose 8 µM) | 0.838 | 4.1 µM
KATOIII (stomach, semi-adherent, top dose 8 µM) | 0.99 | > 8 µM
KCL-22 (chronic myeloid leukaemia, suspension, top dose 8 µM) | 0.991 | > 8 µM
KE-37 (lymphoblastic leukaemia, suspension, top dose 8 µM) | 0.969 | > 8 µM
KELLY (neuroblastoma, adherent, top dose 8 µM) | 0.988 | > 8 µM
KG-1 (acute myeloid leukaemia, suspension, top dose 8 µM) | 0.974 | > 8 µM
KGN (ovary, adherent, top dose 8 µM) | 0.756 | 3.27 µM
KINGS-1 (glioma, adherent, top dose 8 µM) | 0.979 | > 8 µM
KLE (endometrium, adherent, top dose 8 µM) | 0.974 | > 8 µM
KM12 (large intestine, adherent, top dose 8 µM) | 0.928 | > 8 µM
KM-H2 (Hodgkin lymphoma, suspension, top dose 8 µM) | 0.942 | > 8 µM
KMH-2 (thyroid, adherent, top dose 8 µM) | 0.99 | > 8 µM
KMOE-2 (acute myeloid leukaemia, suspension, top dose 8 µM) | 0.967 | > 8 µM
KMRC-1 (kidney, adherent, top dose 8 µM) | 0.886 | > 8 µM
KMRC-20 (kidney, adherent, top dose 8 µM) | 0.966 | > 8 µM

Cell Line | AUC | IC50
KMS-11 (myeloma, suspension, top dose 8 µM) | 0.97 | > 8 µM
KNS-42 (glioma, adherent, top dose 8 µM) | 0.981 | > 8 µM
KNS-62 (lung squamous cell carcinoma, adherent, top dose 8 µM) | 0.976 | > 8 µM
KNS-81-FD (glioma, adherent, top dose 8 µM) | 0.847 | > 8 µM
KON (head and neck, adherent, top dose 8 µM) | 0.938 | > 8 µM
KOPN-8 (B-cell leukaemia, suspension, top dose 8 µM) | 0.83 | 4.08 µM
KP-1N (pancreas, adherent, top dose 8 µM) | 0.983 | > 8 µM
KP-2 (pancreas, adherent, top dose 8 µM) | 0.963 | > 8 µM
KP-3 (pancreas, adherent, top dose 8 µM) | 0.984 | > 8 µM
KP-N-YN (neuroblastoma, adherent, top dose 8 µM) | 0.983 | > 8 µM
KS-1 (glioma, adherent, top dose 8 µM) | 0.743 | 
KU812 (chronic myeloid leukaemia, suspension, top dose 8 µM) | 0.952 | > 8 µM
KU-19-19 (bladder, adherent, top dose 8 µM) | 0.985 | > 8 µM
KURAMOCHI (ovary, adherent, top dose 8 µM) | 0.984 | > 8 µM
KY821 (leukaemia, suspension, top dose 8 µM) | 0.987 | > 8 µM
KYAE-1 (oesophagus, suspension, top dose 8 µM) | 0.971 | > 8 µM
KYM-1 (rhabdomyosarcoma, adherent, top dose 4 µM) | 0.915 | > 4 µM
KYSE-50 (oesophagus, adherent, top dose 8 µM) | 0.99 | > 8 µM
KYSE-140 (oesophagus, adherent, top dose 8 µM) | 0.984 | > 8 µM
KYSE-150 (oesophagus, adherent, top dose 8 µM) | 0.966 | > 8 µM
KYSE-220 (oesophagus, adherent, top dose 8 µM) | 0.978 | > 8 µM
